Reference: publication PMC4336329 (PLoS ONE, 2015)
Screen size: about 310,000 compounds; about 2,200 (0.71%) showed an effect of 50% or more. Effects have a minus sign here. The list shows a part of the results.

molecular target: human ether-à-go-go-related gene (hERG) potassium channel (human, UniProt Q12809); assay: primary screen, population patch clamp on CHO cells stably expressing hERG
Sequence (Q12809 whole entry, looked up): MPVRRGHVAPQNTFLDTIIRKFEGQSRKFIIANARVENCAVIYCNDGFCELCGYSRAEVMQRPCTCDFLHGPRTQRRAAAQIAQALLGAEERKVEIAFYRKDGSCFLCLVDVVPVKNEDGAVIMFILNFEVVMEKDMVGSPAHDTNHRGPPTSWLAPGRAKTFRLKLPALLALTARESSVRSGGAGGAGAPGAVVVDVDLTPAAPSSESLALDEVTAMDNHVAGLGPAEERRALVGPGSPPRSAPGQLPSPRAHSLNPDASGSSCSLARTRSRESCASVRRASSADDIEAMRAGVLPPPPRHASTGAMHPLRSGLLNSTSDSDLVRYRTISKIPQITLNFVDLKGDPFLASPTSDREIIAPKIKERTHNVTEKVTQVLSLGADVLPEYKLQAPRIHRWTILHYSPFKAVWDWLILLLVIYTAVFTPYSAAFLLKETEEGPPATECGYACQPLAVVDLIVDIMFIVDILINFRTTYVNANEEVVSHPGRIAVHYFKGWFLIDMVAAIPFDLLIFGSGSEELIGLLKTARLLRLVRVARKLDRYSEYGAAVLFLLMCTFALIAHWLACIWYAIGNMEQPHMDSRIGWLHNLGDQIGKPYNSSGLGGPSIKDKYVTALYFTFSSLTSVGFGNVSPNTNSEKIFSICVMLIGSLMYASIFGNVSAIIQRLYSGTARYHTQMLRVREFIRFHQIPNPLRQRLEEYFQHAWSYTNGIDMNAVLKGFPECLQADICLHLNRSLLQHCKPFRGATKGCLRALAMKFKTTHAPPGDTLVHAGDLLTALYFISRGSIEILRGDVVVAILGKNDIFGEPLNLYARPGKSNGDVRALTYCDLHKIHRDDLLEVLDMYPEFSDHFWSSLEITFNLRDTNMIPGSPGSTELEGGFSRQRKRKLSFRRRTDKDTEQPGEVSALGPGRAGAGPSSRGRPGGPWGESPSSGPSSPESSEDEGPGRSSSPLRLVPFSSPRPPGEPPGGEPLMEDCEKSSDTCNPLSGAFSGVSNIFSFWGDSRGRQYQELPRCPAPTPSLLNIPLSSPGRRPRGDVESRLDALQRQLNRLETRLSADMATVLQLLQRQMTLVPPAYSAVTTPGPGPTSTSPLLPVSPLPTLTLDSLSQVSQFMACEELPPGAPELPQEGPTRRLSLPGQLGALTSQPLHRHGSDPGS

SMILES	hERG current change (%, negative = inhibition) at 1uM [%]
Cc1ccc(S(=O)(=O)N2CCCC(C(=O)NCC3CCCO3)C2)cc1 (centres unmarked)	15.9
CCn1nnnc1NC(=O)c1ccc2ccccc2c1	1
COCCn1nnnc1C(c1ccc(OC)cc1)N1CCN(c2ccccc2F)CC1.Cl (centres unmarked)	15.8
CCCCCCCCN1[C@@H](CC(=O)O)c2cc(F)ccc2S1(=O)=O	6.88
CCOc1ccc(CCNC(=O)CCn2nc(C)c3c(C)n(-c4ccccc4)nc3c2=O)cc1	3.35
COc1cccc(NC(=O)COc2coc(CN3CCc4ccccc4C3)cc2=O)c1	6.62
Fc1ccc(Br)cc1C1C=C(c2ccc(Br)s2)Nc2ncnn21 (centres unmarked)	6.52
COc1ccccc1-c1ccc(/C=N/O)o1	14.8
CCCC(CCC)C(=O)NCCN1CCOCC1.Cl	1.28
O=[N+]([O-])c1ccc(Cl)c(NC2=NCCCCC2)c1	13.5
CCOC(=O)C1=C(COC(=O)c2cccc(Cl)c2)NC(=O)NC1C (centres unmarked)	10.6
CNS(=O)(=O)c1ccc(CCC(=O)N2CCOCC2)cc1	12.8
CC1Cc2cc(S(=O)(=O)N3CCN(c4cccc(Cl)c4)CC3)ccc2N1C(=O)C1CC1 (centres unmarked)	24.6
COc1ccc(C2CC2/C(=N/O)c2ccccn2)cc1 (centres unmarked)	12.7
O=C(CNC(=O)c1ccncc1)N/N=C/c1cccc([N+](=O)[O-])c1	8.46
Cc1cccc(C(=O)Nc2cccc(S(=O)(=O)NCc3ccco3)c2)c1	5.79
Cc1noc(C)c1C(=O)N1CCC(CO)(Cc2ccccc2)CC1	4.26
COCCN(CCNC(=O)c1ccc(NC2=NC3CS(=O)(=O)CC3S2)cc1)Cc1ccco1 (centres unmarked)	-4.24
O=c1c2ccccc2nc(/C=C\c2ccccc2[N+](=O)[O-])n1-c1ccccc1O	-6.33

SMILES	hERG current change (%, negative = inhibition) at 1uM [%]
O=C(NCCc1ccccc1)c1cccs1	5.8
CC(=O)Nc1cccc(C(=O)OCC(=O)c2ccccc2Cl)c1	0.186
COc1cc(/C=N/NC(=O)Cc2ccccc2)ccc1Oc1ccc([N+](=O)[O-])cc1[N+](=O)[O-]	7.76
CCC(C)(C(=O)NC1CCCCC1)N(C)C(=O)c1ccc2c(c1)OCO2 (centres unmarked)	14.1
CCOc1ccccc1N1CCN(C(=O)c2cc(-c3cccnc3)nc3c(Cl)cccc23)CC1	13.4
COCc1nnc(NC(=O)c2ccc(S(=O)(=O)N(CC(C)C)CC(C)C)cc2)o1	7.35
O=C(CCC1CCCN(C(=O)c2ccoc2)C1)NCc1ccccc1F (centres unmarked)	8.01
Cc1ccc(S(=O)(=O)N2CCC(C(=O)O)CC2)cc1	9.7
CCN(CC)c1c([N+](=O)[O-])c(=O)oc2ccccc12	11.2
O=C(CCCC(=O)n1cnc2ccccc21)n1cnc2ccccc21	9.47
Cc1nnc(SC(C)C(=O)Nc2ccc3ccccc3c2)n1C (centres unmarked)	7.87
O=C(Oc1ccc(-c2nnco2)cc1)N1CCCCC1	12.3
O=C1N=C(N2CCCCC2)SC1=C1CCCCC1	4.8
CS(=O)(=O)N1CCc2cc(C(=O)Nc3ccc(COCC(F)(F)F)cc3)ccc21	10.4
Cc1csc(NC(=O)CSc2nnc(Cc3cccn3C)n2-c2ccc(F)cc2)n1	1.54
COc1ccc(CCNC(=O)C(=O)c2c(C)n(C)c3ccccc23)cc1OC	10.4
COc1cccc(/C=C/C(=O)c2ccc3c(c2)OCO3)c1OC	7.33
CCN(CC)S(=O)(=O)N1CCC(C(=O)NCCC2=CCCCC2)CC1	6.39
Cc1ccnc(NC(=O)CCC(=O)N(CC(=O)NCc2ccc(F)cc2)Cc2ccccc2)c1	0.229

SMILES	hERG current change (%, negative = inhibition) at 1uM [%]
O=C1C2C3C=CC(C3)C2C(=O)N1c1ccc(-c2nc3ccccc3o2)cc1 (centres unmarked)	9.99
Cc1oc(C)c(C(=O)O)c1C(=O)O	16.8
CN(Cc1ccccc1)S(=O)(=O)c1ccc(NC(=O)c2ccccc2C(=O)O)cc1	-1.92
Cc1c(C(=O)N2CCCC2)nnn1-c1nonc1N	12.4
CCCNC(=O)NC(=O)COC(=O)c1oc2ccc(OCC)cc2c1C	2.89
O=[N+]([O-])c1ccc(/C=N/Nc2nc(-c3ccccc3)c3cc(Br)ccc3n2)o1	5.06
COc1ccccc1NC(=O)CN1C(=O)CC(C)S(=O)(=O)c2ccccc21 (centres unmarked)	2.08
Cc1nc(Nc2ccccc2)[nH]c(=O)c1CCC(C)C	1.92
CC(=O)Nc1cccc(NC(=O)c2cccc(-c3ccc(O)cc3)c2)c1	7.74
O=C(Nc1cccc(C(F)(F)F)c1)c1cc(Br)cc2c1OCC2	7.93
O=C(NCc1cccs1)c1cccc(S(=O)(=O)N2CCCCC2)c1	2.32
CCCn1c(C)cc(=O)c2cc(NC(=O)c3ccccn3)ccc21	-5.24
CCCCOc1ccc(-c2nnn(CC(=O)NCCc3c[nH]c4ccccc34)n2)cc1	-0.104
O=C(C1CCN(S(=O)(=O)c2cccc3nsnc23)CC1)N1CCc2ccccc2C1	11.3
COC(=O)c1cccc(NC(=O)c2ccc3c(c2)C(=O)N(C(C)(C)C)C3=O)c1	17.2
CCOC(=O)c1ccc(NC(=O)c2ccc3c(c2)C(=O)N(CC2CCCO2)C3=O)cc1 (centres unmarked)	5.17
CCCCN(CCCNC(=O)c1ccc(CS(=O)(=O)c2ccc(OC)cc2)o1)Cc1ccccc1	-17.1
N=c1c(C(=O)NCC2CCCO2)cc2c(=O)n3ccccc3nc2n1C1CCCC1 (centres unmarked)	-72.2
